Experimental findings from PubChem BioAssay AID488969 (Vanderbilt High Throughput Screening Facility, 2010) are described below.

Molecules are shown by their SMILES. In all, about 110,000 compounds were measured (“z-score”: median about -0.1, highest 2% from about 2 on). This is one part of the list. Calls of active or inactive are those of the source.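 The calls were made as follows: active = z-score in the third read window above 3 or below -3; inactive = the rest.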

This test concerns the target Metabotropic glutamate receptor 8 (Rattus norvegicus) (UniProt P70579). Briefly: rat mGluR8 modulators via GIRK flux, primary screen, cell-based, thallium flux, HTS (AID 488969). The conditions noted are these: HEK293 rat mGluR8, GIRK (G protein-gated inwardly rectifying potassium channel) thallium flux, FluoZin2; at 10 µM; stronger effect = higher value; submaximal glutamate (EC20) added with thallium.
UniProt P70579, sequence (P70579 whole entry, looked up): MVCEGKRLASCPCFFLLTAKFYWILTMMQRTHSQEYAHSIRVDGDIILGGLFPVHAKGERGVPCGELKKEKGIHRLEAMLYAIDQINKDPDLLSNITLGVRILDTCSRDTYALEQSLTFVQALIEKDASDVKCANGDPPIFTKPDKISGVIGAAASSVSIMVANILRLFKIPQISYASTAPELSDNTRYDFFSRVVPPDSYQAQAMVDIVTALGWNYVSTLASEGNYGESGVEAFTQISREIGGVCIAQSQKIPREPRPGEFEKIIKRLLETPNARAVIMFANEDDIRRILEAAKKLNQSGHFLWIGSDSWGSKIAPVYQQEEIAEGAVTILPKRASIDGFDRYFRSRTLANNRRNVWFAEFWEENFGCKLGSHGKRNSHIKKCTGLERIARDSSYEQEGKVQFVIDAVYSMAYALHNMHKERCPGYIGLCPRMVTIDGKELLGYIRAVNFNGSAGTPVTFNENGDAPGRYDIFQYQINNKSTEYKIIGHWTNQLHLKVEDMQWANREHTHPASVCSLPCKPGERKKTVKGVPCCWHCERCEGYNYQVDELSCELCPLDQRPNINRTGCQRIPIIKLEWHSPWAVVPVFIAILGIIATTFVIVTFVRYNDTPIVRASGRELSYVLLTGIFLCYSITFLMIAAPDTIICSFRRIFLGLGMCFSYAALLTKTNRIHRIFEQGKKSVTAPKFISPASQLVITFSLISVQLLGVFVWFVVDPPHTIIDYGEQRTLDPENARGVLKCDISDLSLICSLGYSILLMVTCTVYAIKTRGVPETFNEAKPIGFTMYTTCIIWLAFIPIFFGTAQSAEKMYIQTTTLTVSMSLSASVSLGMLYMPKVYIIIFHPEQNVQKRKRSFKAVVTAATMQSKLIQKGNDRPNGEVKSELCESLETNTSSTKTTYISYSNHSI
The molecule `Cc1cc(C)n(-c2cc(C)c(C)cc2Br)n1` returned a z-score of -0.323.
The same measure for `Cc1ccc(NC(=O)CSc2nnc(-c3ccncc3)n2C)cc1C`: -0.215; for `O=C(O)CSC(C(=O)Nc1ccc(C(F)(F)F)cc1)c1ccccc1` (stereo not drawn): -0.302; for `O=S(=O)(c1ccc2ccccc2c1)N1CCN(C(=S)Nc2ccc(F)c(Cl)c2)CC1`: 0.355.
The same measure for `CCOC(=O)c1cc2occc2n1CCCN1C(=O)c2ccccc2C1=O`: -0.393.
The same measure for `O=C(CSc1nc2ccccc2c(=O)[nH]1)c1ccccc1`: -0.553; for `CCN(CC)S(=O)(=O)c1cccc(NC(=O)CCSc2ccc(Cl)cc2)c1`: 0.0143; for `CC1CN(C(=O)Nc2ccc3c(c2)OCO3)CC(C)O1` (stereo not drawn): -0.128.
`CCC/C(O)=C1\C(=O)CC(c2ccccc2)CC1=NC(C)C(=O)O` (stereo not drawn) registered a z-score of 1.43.
The same measure for `Cc1cc(=O)oc2c(C)c(OCC(=O)N(C)C)ccc12`: 0.0347; for `COc1cccc(NC(=O)C2CCN(S(=O)(=O)c3ccc4c(c3)OCCO4)CC2)c1`: -0.278; for `CC(C)(C)C(=O)Nc1nc2c(s1)COc1ccccc1-2`: active: -4.24.
On to `CS(=O)(=O)N(CC(=O)N1CCN(c2ccc(F)cc2)CC1)c1ccc(F)c(Cl)c1`, for which the z-score was determined as 0.0531.
Then `CCN1C(=O)c2cccc3c(S(=O)(=O)N(C(=O)c4cccnc4)c4ccc(OC)cc4)ccc1c23`, with -0.343; and `CN(C)CCN1C(=O)C(O)=C(C(=O)c2cc3ccccc3o2)C1c1ccccn1` (stereo not drawn), with 0.172.
On to `CCOc1ccc(-c2nn3c(-c4ccccc4)nnc3s2)cc1`, for which the z-score came to 0.0852.
Then `O=C(Cc1ccc(Cl)cc1Cl)Nc1ccc(OC(F)F)c(Cl)c1`, with -0.174; and `COC(=O)c1cc(OC)c(OC)cc1NC(=O)CSc1nnc(-c2cccnc2)n1C`, with -0.243.
Then `CCCCC(C)n1[nH]c(=O)cc1N` (stereo not drawn), with -0.279; and `Cc1ccc(C(=O)c2coc3c2C(=O)C(=O)c2ccccc2-3)cc1`, with 0.63.
The same measure for `O=C(Nc1ccc(-c2nc3cccnc3s2)cc1)c1ccc(Br)o1`: -0.635; for `O=C(CCC(=O)OCC(=O)c1ccc(Br)cc1)Nc1cccc2cccnc12`: -0.2.
`O=C(N/N=C/c1ccccc1[N+](=O)[O-])c1ccc(CN2CCOCC2)cc1` had a z-score of 1.27.
The same measure for `CN(C)c1nc(N)nc(CSc2nnnn2-c2ccccc2)n1`: 0.111; for `CCOC(=O)C1CCN(C(=O)COc2ccc(Cl)cc2)CC1`: -0.448.
Then `Cc1ccccc1CS(=O)(=O)CCC(=O)NCCCN1CCOCC1`, with 0.319.
The same measure for `O=[N+]([O-])c1ccc(Cl)c(/C=N/N2CCN(Cc3ccccc3)CC2)c1`: -0.098; for `Cc1[nH]c(=O)[nH]c(=O)c1NC(=O)c1cccs1`: -0.625; for `CCOC(=O)c1oc2ccccc2c1NC(=O)c1ccc(Cl)s1`: 0.609.
`COc1ccc(C)cc1S(=O)(=O)N(C)CC(=O)Nc1ccccc1` yielded a z-score of 0.902.
The same measure for `COc1ccc(N(C)S(=O)(=O)c2ccc3c(c2)CCC(=O)N3)cc1`: -0.122; for `COc1ccc(N2Cc3cccc(C(=O)NC(C)CCc4ccco4)c3C2=O)cc1` (stereo not drawn): -1.24.
As for `O=C(Cn1ccc2ccccc2c1=O)NCCC(=O)Nc1cccnc1`, the z-score came out at 0.609.
Then `Cc1cc(C)n2nc(S(=O)(=O)N(C)Cc3ccccc3)nc2n1`, with 1.11.
The same measure for `CCc1nnc(NC(=O)CSc2nnc(C3CCCCC3)n2-c2cccc(Cl)c2)s1`: active: -3.11; for `CC(C)(C(=O)c1ccccc1)/[N+]([O-])=C/c1ccccc1`: -0.279.
The molecule `COc1ccc(OC)c(NC(=S)N2CCN(C/C=C/c3ccccc3)CC2)c1` displayed a z-score of -0.183.
As for `CCCCCn1c(=N)n(CC(O)COc2ccccc2OC)c2ccccc21` (stereo not drawn), the z-score was -1.11.
The molecule `COc1ccc(NS(=O)(=O)c2ccc(NC(=S)NC(=O)c3cccc(F)c3)cc2)nn1` registered a z-score of -0.167.
The same measure for `CCOC(=O)C(Cc1ccccc1)C(=O)Nc1cccc(C)c1` (stereo not drawn): -0.552.
The same measure for `CCc1cc(=O)oc2cc(OCC(=O)N(CC)CC)c(Cl)cc12`: -0.13; for `COC(=O)c1[nH]c2ccc(C)cc2c1NC(=O)Nc1ccccc1OC`: 0.195.
Then `O=C(CSc1ccc(Cl)cc1)Nc1cccc(NC(=O)c2ccco2)c1`, with -0.78; and `CCOC(=O)c1cc(C(=O)OCC)c2cccc(C)n2c1=O`, with -0.264; and `Cc1cc(C)n(C(=O)c2ccc(NC(=O)C3CC3)cc2)n1`, with -0.0142.
As for `CCC1Oc2ccc(C)cc2N(CC(=O)NCCc2ccc(OC)c(OC)c2)C1=O` (stereo not drawn), the z-score turned out to be 0.0801.
Consider `CC(Sc1nc(-c2ccccc2)nc2c1COC(C)(C)C2)C(=O)N1CCOCC1` (stereo not drawn), for which the z-score was -0.259.
Molecule `O=C(Nc1ccc(Cl)cc1-c1nc2ccccc2s1)c1ccco1` had a z-score of -0.0775.
The molecule `CCOc1cc(CN2CCN(CCOCCO)CC2)ccc1OC` returned a z-score of -0.0768.
Then `Cn1c(=O)oc2cc(S(=O)(=O)NCCC(=O)N3CCc4ccccc43)ccc21`, with -0.0872; and `N#Cc1c2c(c(=S)n(-c3ccccc3)c1N)CCCC2`, with -0.205.
The same measure for `CCOC(=O)c1[nH]c2ccc(Cl)cc2c1-c1ccccc1`: -0.128.
Then `COC(=O)c1c(NC(=O)c2ccccc2[N+](=O)[O-])sc2c1CC(C)(C)NC2(C)C`, with 0.735; and `COc1ccc(NC(=O)CN2C(=O)C(c3ccccc3)=NC23CCCCCC3)cc1OC`, with -0.217.
Molecule `CCOC(=O)c1ccc(NC(=O)CSc2nc3ncccc3[nH]2)cc1` returned a z-score of 0.152.
Consider `CCC(C)n1c(SCC(=O)Nc2ccccc2C(F)(F)F)nc2ccsc2c1=O` (stereo not drawn), for which the z-score was -1.41.
The same measure for `O=C(Nc1ccccc1)Nc1cc(S(=O)(=O)N2CCOCC2)ccc1N1CCCC1`: -0.185; for `CCOC(=O)C1CCN(C(=O)c2c(-c3c(F)cccc3Cl)noc2C)CC1`: 0.439.
Then `Cc1onc(-c2ccccc2)c1C(=O)Nc1ccc(S(=O)(=O)NC2=NCCCCC2)cc1`, with 0.349; and `CCC(C)NC(=O)c1ccc(CS(=O)(=O)c2ccc(OC)cc2)o1` (stereo not drawn), with -0.101; and `O=C(CNC(=O)C1COc2ccccc2O1)N/N=C\c1cccc(O)c1` (stereo not drawn), with -0.458.
Then `Cc1cc2c(n1-c1ccc(C(N)=O)cc1)CC(C)(C)CC2=O`, with 0.0347.
In the case of `Cc1c(C(=O)Nc2ccc(-n3cnnn3)cc2)oc2ccccc12`, the z-score was 0.556.
`O=S(=O)(c1cnccc1N1CCN(/N=C/c2ccc(Cl)cc2)CC1)N1CCCCC1` came in with a z-score of -0.388.
The same measure for `COc1ccc(/C=N/NC(=O)C(N)=O)c(OC)c1OC`: -0.0372.
In turn, `CC(C)NC(=O)Cn1nc(C(F)(F)F)c2c1CCC2` registered a z-score of -0.11.
Then `CCCC(=O)N=C1SC2CS(=O)(=O)CC2N1c1ccc(CC)cc1` (stereo not drawn), with 0.00987.
As for `CCSc1nnc(NC(=O)C(C)Sc2nc3ccccc3[nH]2)s1` (stereo not drawn), the z-score was 1.73.
Then `COc1ccc(OCC(O)CNC(=O)c2ccc(Br)cc2)cc1` (stereo not drawn), with -0.0997; and `O=C(c1ccco1)N1CCN(c2cc(=O)n(-c3ccc(Cl)cc3)c(=O)[nH]2)CC1`, with -0.434.
Then `COc1ccc(OC)c(-c2cc(C(F)(F)F)c3c(n2)sc2c(O)cc(=O)[nH]c23)c1`, with -0.747.
Then `O=C(Nc1ncc(Cc2cccc(Cl)c2)s1)C1CCCO1` (stereo not drawn), with -1.83.
In the case of `COc1ccc(Br)cc1CN(C)CC(=O)Nc1cc([N+](=O)[O-])ccc1OC`, the z-score was -0.333.
The same measure for `C=C(C)CNC(=S)NNC(=O)CCn1c2cc(Cl)ccc2c2ccc(Cl)cc21`: 0.249; for `C=CCNc1oc(/C=C/c2ccccc2)nc1C#N`: -0.179.
The same measure for `COC(=O)c1ccc(NC(=O)Cc2ccccc2)cc1`: 0.253.
The same measure for `COc1ccc(Cl)cc1N(CC(=O)NC(C)(C)C)S(=O)(=O)c1ccc(C)c([N+](=O)[O-])c1`: -0.264.
`Cc1ccc(S(=O)(=O)N2CCCC(c3nnc4n3-c3ccccc3SC4)C2)cc1` (stereo not drawn) showed a z-score of -1.39.
The molecule `CCCCNC(=O)Nc1nnc(-c2ccccc2)o1` gave a z-score of -0.218.
The same measure for `COc1ccccc1CNC(=O)C1CCN(S(=O)(=O)c2cccc3cccnc23)CC1`: 0.287; for `O=S(=O)(/C=C/c1ccccc1)Oc1ccccc1`: -0.844; for `Cc1ccc(-c2cc(-c3ccc(C)o3)nc(N)c2C#N)cc1`: -0.0155.
The same measure for `Cc1ccc([N+](=O)[O-])cc1NC(=S)NC(=O)c1cccs1`: 2.46; for `O=S(=O)(Nc1ccc2c(c1)OCCO2)c1cccs1`: -0.0707.
The same measure for `CC(=O)c1cccc(NC(=S)NC(=O)c2ccc(Cl)cc2)c1`: -0.258; for `CCn1cnc2c1c(=O)n(Cc1csc(-c3ccccc3)n1)c(=O)n2Cc1ccccc1`: -1.3; for `O=C(NC(=S)NCCN1CCOCC1)c1ccccc1`: -0.0216.
On to `COc1ccccc1-c1nnc(SCC(=O)N2CC(C)CC(C)C2)o1` (stereo not drawn), for which the z-score was -1.06.
Then `Cc1ccc(-c2nnn(CC(=O)NC3CC4CCC3C4)n2)cc1` (stereo not drawn), with active: 5.1.
The same measure for `CN(c1ccccc1C(=O)Nc1ccc2c(c1)OCO2)S(C)(=O)=O`: 0.257; for `O=C(c1ccc(S(=O)(=O)N2CCCCC2)cc1)N1CCCc2ccccc21`: -0.234.
The same measure for `COc1cccc(CNc2nc3nc(C)c(Cl)c(C)n3n2)c1`: 0.0342; for `COc1ccccc1N=c1sc2ccccc2n1C`: -0.334; for `COc1ccc(/C(O)=C2\C(=O)C(=O)N(Cc3ccco3)C2c2cc(OC)ccc2OC)cc1` (stereo not drawn): -1.65.
As for `COC(=O)c1c(NC(=O)CSc2nnc(-c3ccco3)n2C)sc(C)c1C`, the z-score is -0.543.
Then `Cc1cc(C)cc(NC(=O)C(OC(=O)C2=COCCO2)c2ccccc2)c1` (stereo not drawn), with -0.0119; and `Cc1cc(C)cc(OCC(=O)OCC(=O)c2c(N)n(C)c(=O)n(C)c2=O)c1`, with -0.762; and `CC(C)(C)C(=O)COC(=O)CNC(=O)c1ccc(Oc2ccccc2)cc1`, with -0.933.
As to `COc1ccc(Cl)cc1NC(=S)NCCSc1ccc(C)cc1`, the z-score stood at 0.00838.
The same measure for `CCC(=O)N1c2ccc(S(=O)(=O)CCC(=O)N3CCn4c3nc3ccccc34)cc2CC1C` (stereo not drawn): -0.344; for `CC1(C)Cc2nc3sc4c(=O)[nH]cnc4c3cc2CS1`: -0.851.
The same measure for `Cc1ccc(-n2c(=O)cc(N3CCc4ccccc4C3)[nH]c2=O)cc1`: -0.52.
In turn, `Clc1ccc(-c2c[n+](Cc3ccc(Cl)c(Cl)c3)c3n2CCC3)cc1` registered a z-score of -0.0432.
Then `COc1ccc(-c2cc(C(=O)OCC(=O)Nc3cc(C)on3)c3ccccc3n2)cc1OC`, with 0.365.
The same measure for `Cc1ccc(C(C)C)c(OCC(=O)Nc2ccc3c(c2)nc(CN2CCCC2)n3C)c1`: 1.05; for `CCC1CCC(C(=O)NC(C(=O)Nc2ccc3c(c2)OCCO3)C(C)C)CC1` (stereo not drawn): -0.415.
The same measure for `CCOC(=O)c1c(-c2cccs2)csc1NC(=O)c1ccco1`: -0.0478.
`Cc1cc(C)c2c(n1)sc1c(=O)n(Cc3ccccc3Cl)nnc12` registered a z-score of -0.506.
